Results are given in words; binding and its absence hold for the method and conditions named. In cells and extracts the contact can be indirect. Some results given as binding are weak or reduced against the parent protein; the word gives no strength. For some of these results: Tags and fused reporters may be left off the sequences shown.
Key:
[1] = molecular target: T1, endogenous Bicc1 (mIMCD3 cells) (mouse (endogenous in mIMCD3)) (UniProt Q99MQ1); assay: co-IP; endogenous Bicc1 immunoprecipitated from mIMCD3 cell extracts with a custom anti-Bicc1 antibody on protein G Sepharose; pre-immune IgG as control; Western blot
T1 sequence: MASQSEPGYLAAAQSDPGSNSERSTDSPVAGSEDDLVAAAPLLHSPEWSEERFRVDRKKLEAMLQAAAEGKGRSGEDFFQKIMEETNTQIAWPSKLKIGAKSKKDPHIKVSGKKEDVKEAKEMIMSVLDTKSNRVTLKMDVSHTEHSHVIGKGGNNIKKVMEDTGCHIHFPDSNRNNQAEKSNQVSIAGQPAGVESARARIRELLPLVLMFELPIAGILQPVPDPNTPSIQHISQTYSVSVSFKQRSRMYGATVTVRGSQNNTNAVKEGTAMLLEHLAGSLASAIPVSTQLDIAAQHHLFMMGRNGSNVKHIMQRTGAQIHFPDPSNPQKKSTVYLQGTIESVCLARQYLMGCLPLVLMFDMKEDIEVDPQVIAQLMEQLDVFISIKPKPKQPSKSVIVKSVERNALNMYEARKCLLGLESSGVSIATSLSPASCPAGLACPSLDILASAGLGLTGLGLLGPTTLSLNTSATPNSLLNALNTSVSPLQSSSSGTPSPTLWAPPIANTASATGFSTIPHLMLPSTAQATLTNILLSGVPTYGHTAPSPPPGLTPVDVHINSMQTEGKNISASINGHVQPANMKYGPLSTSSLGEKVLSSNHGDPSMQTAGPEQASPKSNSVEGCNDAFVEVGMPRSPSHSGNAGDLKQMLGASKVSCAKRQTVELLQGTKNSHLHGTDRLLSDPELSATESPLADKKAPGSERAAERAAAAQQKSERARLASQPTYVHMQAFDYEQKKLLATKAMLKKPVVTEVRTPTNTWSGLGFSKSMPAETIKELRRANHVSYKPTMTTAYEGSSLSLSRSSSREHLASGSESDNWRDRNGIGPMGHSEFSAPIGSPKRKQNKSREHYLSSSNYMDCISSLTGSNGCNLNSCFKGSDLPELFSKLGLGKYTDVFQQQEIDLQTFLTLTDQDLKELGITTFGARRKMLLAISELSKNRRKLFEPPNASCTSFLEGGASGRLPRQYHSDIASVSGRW

Chains of the proteins cited; added tags and fusions are not shown.
UniProt P69566: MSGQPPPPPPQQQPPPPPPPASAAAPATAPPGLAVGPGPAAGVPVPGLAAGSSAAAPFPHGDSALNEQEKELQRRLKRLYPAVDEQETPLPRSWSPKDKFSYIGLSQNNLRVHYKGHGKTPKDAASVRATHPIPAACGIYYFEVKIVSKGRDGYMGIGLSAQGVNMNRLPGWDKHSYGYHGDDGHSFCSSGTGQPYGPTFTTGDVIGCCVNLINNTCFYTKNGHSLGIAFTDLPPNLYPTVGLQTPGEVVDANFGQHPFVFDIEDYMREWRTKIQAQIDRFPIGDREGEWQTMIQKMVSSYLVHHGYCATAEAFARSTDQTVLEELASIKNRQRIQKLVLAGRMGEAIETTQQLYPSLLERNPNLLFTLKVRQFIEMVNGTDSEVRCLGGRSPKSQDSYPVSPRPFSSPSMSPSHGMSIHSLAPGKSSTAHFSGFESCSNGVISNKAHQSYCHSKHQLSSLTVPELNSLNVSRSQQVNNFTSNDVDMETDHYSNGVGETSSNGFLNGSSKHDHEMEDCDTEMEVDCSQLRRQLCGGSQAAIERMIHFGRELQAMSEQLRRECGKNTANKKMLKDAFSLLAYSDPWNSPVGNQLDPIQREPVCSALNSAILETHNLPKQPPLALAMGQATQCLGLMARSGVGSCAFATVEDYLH
UniProt Q9H7D7: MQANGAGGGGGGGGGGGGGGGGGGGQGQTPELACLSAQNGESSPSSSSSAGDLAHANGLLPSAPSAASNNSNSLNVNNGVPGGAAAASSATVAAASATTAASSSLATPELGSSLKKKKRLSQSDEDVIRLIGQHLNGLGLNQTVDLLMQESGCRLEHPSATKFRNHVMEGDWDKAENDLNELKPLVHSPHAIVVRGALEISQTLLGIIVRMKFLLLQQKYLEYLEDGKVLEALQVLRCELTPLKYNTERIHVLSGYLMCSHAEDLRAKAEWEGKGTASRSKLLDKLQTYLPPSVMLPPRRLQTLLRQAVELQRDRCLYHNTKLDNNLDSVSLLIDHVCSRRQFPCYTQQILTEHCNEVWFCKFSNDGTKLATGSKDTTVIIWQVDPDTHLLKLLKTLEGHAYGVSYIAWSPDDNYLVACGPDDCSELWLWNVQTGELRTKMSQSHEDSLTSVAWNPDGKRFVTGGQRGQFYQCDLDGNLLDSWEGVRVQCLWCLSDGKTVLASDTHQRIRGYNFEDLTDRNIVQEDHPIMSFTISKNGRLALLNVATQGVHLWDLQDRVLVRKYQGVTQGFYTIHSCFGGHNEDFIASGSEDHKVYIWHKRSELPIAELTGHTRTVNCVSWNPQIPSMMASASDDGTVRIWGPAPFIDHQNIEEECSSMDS
UniProt Q9D7M1: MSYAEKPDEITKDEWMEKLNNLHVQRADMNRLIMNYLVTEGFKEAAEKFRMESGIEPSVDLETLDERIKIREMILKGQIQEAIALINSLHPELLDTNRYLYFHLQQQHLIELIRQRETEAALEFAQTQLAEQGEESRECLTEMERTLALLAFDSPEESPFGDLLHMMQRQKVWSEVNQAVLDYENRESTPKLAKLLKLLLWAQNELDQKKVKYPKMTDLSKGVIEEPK
UniProt A5YKK6: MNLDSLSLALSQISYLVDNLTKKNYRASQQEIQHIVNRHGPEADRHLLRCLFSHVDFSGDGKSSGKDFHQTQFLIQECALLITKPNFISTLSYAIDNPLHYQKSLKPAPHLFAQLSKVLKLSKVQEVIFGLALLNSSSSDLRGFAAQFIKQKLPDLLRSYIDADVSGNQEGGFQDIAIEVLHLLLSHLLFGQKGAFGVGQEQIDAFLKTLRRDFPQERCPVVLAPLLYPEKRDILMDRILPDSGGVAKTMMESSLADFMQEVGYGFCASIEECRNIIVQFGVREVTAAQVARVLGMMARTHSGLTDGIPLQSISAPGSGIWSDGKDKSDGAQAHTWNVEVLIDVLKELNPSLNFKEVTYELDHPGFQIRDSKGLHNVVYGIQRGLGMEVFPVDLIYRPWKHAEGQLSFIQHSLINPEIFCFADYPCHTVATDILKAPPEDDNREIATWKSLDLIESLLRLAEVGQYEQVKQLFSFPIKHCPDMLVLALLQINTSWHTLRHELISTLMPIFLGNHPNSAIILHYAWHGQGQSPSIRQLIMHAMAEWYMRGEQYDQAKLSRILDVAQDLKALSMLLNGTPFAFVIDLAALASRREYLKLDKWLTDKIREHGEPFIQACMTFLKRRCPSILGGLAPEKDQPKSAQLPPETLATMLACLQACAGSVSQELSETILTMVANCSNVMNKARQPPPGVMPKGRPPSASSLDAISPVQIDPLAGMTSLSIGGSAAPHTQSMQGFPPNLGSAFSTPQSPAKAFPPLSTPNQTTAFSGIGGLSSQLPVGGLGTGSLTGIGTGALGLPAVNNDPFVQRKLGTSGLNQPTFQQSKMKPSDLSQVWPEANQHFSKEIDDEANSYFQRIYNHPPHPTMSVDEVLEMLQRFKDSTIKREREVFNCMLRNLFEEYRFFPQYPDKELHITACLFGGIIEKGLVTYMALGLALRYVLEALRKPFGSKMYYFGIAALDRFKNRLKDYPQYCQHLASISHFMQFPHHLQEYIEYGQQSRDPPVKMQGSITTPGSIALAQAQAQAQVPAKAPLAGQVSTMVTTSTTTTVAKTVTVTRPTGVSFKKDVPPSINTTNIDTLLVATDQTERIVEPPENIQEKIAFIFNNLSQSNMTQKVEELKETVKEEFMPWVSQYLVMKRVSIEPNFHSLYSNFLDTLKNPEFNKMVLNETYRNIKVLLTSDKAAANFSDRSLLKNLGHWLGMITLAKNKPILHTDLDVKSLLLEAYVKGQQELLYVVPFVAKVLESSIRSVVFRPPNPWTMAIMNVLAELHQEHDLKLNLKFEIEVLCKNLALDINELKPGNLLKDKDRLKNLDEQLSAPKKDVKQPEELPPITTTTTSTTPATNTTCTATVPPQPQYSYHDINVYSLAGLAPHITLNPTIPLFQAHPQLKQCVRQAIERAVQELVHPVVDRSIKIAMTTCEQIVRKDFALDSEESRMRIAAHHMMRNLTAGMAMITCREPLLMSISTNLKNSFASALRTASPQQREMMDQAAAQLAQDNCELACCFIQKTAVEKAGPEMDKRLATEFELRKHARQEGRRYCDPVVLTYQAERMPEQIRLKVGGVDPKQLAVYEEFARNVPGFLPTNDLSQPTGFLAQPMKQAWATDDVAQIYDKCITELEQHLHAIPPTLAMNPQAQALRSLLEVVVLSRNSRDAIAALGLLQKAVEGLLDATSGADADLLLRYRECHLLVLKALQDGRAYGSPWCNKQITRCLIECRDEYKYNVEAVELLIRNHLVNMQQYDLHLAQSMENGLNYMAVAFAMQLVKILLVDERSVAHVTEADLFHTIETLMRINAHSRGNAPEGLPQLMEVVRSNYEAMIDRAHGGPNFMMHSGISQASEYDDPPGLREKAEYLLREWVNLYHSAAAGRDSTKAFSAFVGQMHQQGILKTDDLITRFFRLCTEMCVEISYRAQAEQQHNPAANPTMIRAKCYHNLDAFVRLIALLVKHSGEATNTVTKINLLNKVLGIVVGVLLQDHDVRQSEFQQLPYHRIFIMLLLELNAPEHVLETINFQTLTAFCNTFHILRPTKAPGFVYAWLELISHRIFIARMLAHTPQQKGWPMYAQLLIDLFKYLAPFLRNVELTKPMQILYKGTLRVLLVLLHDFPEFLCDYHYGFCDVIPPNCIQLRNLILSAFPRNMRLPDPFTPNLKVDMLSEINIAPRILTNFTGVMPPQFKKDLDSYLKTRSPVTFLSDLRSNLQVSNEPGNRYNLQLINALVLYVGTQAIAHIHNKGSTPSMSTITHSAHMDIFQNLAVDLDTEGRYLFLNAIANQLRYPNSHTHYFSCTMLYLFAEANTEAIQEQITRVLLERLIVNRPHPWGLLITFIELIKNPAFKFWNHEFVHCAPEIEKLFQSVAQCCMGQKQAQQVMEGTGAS

Flag-tagged ANKS3 = molecular target: T2, Flag-tagged ANKS3 (UniProt Q6ZW76); assay: co-IP; transfected HEK293T extracts (TBS, 1 mM DTT, 0.05% NP-40); anti-HA agarose, anti-FLAG M2 gel or anti-MKLN1; 2 hrs at 4°C; Western blot; mock-transfected cells or pre-immune IgG as control; in Fig 6E with or without cotransfected Flag-ANKS3 or Flag-ANKS3ΔC
T2 sequence: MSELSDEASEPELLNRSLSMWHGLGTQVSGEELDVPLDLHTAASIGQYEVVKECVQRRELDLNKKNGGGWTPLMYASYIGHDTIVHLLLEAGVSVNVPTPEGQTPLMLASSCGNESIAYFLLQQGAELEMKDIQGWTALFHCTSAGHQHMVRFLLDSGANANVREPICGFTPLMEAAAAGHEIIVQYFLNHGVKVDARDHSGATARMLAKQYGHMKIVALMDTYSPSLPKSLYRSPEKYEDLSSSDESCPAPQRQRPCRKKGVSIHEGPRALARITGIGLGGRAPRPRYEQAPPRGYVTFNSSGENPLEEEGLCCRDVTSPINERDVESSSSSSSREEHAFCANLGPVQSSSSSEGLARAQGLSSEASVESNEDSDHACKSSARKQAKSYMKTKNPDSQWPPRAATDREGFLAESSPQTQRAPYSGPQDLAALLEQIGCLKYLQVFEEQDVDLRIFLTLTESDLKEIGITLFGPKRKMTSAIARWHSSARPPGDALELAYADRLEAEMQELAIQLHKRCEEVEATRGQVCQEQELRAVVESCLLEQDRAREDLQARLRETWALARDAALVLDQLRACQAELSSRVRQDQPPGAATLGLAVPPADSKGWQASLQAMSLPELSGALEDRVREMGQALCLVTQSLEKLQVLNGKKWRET

HA-Bicc1 (mouse) = molecular target: T3, HA-Bicc1 (mouse) (UniProt Q99MQ1); assay: co-sedimentation; continuous 15 to 60% sucrose density gradients of extracts of HEK293T cells transfected with HA-Bicc1 or empty vector; fractions analysed by Western blot
T3 sequence: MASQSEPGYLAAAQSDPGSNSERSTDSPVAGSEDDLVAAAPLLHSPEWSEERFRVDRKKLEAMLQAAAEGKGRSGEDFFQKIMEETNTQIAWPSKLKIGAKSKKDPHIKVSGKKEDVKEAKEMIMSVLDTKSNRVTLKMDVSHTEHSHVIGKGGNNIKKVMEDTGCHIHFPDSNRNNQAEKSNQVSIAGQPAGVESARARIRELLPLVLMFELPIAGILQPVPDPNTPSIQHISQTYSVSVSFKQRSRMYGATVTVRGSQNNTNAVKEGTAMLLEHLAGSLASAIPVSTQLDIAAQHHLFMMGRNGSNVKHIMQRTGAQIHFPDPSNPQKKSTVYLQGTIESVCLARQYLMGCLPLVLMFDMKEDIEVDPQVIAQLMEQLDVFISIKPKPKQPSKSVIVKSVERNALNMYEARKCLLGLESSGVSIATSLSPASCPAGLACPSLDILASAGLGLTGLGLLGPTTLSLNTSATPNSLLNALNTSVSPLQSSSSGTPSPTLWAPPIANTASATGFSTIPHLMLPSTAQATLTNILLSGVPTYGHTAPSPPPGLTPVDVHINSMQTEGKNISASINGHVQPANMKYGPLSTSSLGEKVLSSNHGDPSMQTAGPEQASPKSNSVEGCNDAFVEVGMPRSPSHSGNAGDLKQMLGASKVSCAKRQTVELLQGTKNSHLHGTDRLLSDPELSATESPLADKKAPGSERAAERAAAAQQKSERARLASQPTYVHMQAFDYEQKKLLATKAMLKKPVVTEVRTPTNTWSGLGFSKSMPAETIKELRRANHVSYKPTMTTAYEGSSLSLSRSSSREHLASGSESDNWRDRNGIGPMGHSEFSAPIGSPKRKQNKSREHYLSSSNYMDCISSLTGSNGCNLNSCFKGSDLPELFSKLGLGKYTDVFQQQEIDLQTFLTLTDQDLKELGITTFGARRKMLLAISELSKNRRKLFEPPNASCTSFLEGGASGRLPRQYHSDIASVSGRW

binding [1]	Substance	further results
binds	endogenous RanBP9 (mIMCD3 cells) (from UniProt P69566 1-653)	
	WD repeat-containing protein 26 (WDR26), endogenous in HEK293 cells (from UniProt Q9H7D7 1-661)	binding (Flag-tagged ANKS3): no binding
binds	endogenous Twa1 (mIMCD3 cells) (from UniProt Q9D7M1 1-228)	
	NOT1 subunit of the CCR4-NOT complex (CNOT1), endogenous in HEK293 cells (from UniProt A5YKK6 1-2376)	binding (HA-Bicc1 (mouse)): binds
